Reference: the supplement of paper PMC6609913
Counter-ions that a name gives are not always drawn. ± gives the standard deviation of the averaged measurements. In all, about 1,300 compounds were measured (“normalised cell viability”: median about 1, lowest 2% from about 0.14 on). Some of the results follow.

Test system: V-C8 (BRCA2-deficient hamster cells)
Assay: normalised cell viability (fraction of plate median); higher = more viable cells (less toxic)
Conditions: 5 µM
How it was run: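 BRCA2-deficient hamster V-C8 cells and BRCA2-restored V-C8 cells were plated in 96-well plates, and library drugs were added 24 h later at 5 μM in 100 μl medium. Exposure lasted 3 days in screen 1 and 6 days in screen 2, next to solvent-only wells. Viability was then read by resazurin assay, median-plate normalised and averaged across triplicate wells.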

Row | SMILES | normalised cell viability (treatment time: 3 days) | normalised cell viability (treatment time: 6 days)
1 | CN1[C@@H]2CC[C@H]1C[C@@H](OC(=O)C(CO)c1ccccc1)C2 (some centres undefined) [Atropine sulfate monohydrate] | 0.884 ± 0.039 | 1.13 ± 0.0053
2 | CNC(C)(C)Cc1ccccc1 [Mephentermine hemisulfate] | 0.881 ± 0.15 | 0.9918 ± 0.0049
3 | C[C@]12CCC(=O)C(O)=C1CC[C@@H]1[C@@H]2CC[C@]2(C)C(=O)CC[C@@H]12 [Formestane] | 0.964 ± 0.04 | 1.04 ± 0.075
4 | COc1ccc(C(CN(C)C)C2(O)CCCCC2)cc1 (centres undefined) [Venlafaxine] | 1.03 ± 0.025 | 0.587 ± 0.061
5 | CNC(=O)Oc1ccc2c(c1)[C@]1(C)CCN(C)[C@@H]1N2C [Eserine sulfate, physostigmine sulfate] | 0.839 ± 0.046 | 1.06 ± 0.06
6 | CN(C)C(=O)Oc1cccc([N+](C)(C)C)c1 [Neostigmine bromide] | 1.14 ± 0.083 | 1.03 ± 0.07
7 | CC(C)(N)Cc1ccccc1 [Phentermine hydrochloride] | 1.02 ± 0.015 | 1.05 ± 0.057
8 | CCNCC(O)c1cccc(O)c1 (centres undefined) [Etilefrine hydrochloride] | 1.06 ± 0.023 | 0.962 ± 0.077
9 | COc1cc([C@@H]2c3cc4c(cc3[C@H](O)[C@H]3COC(=O)[C@H]23)OCO4)cc(OC)c1OC [Podophyllotoxin] | 0.126 ± 0.01 | 0.143 ± 0.0037
10 | CCNC1(c2cccs2)CCCCC1=O (centres undefined) [Tiletamine hydrochloride] | 1.08 ± 0.042 | 1.12 ± 0.037
11 | C[C@@H]1CC[C@H]2[C@@H](C)C(=O)O[C@@H]3O[C@@]4(C)CC[C@@H]1[C@]32OO4 [Artemisinin] | 0.239 ± 0.0087 | 0.266 ± 0.0074
12 | CCC1(c2cccc(O)c2)CCCCN(C)C1 (centres undefined) [Meptazinol hydrochloride] | 1.24 ± 0.3 | 1.01 ± 0.02
13 | CCN(C(C)=O)c1cccc(-c2ccnc3c(C#N)cnn23)c1 [Zaleplon] | 1.13 ± 0.075 | 0.981 ± 0.063
14 | NCCc1c[nH]c2ccc(O)cc12 [Serotonin hydrochloride] | 1.02 ± 0.071 | 1.08 ± 0.047
15 | CCC(COC(=O)c1cc(OC)c(OC)c(OC)c1)(c1ccccc1)N(C)C (centres undefined) [Trimebutine] | 0.993 ± 0.041 | 0.901 ± 0.12
16 | CC(=O)OCC1=C(C(=O)O)N2C(=O)[C@@H](N)[C@H]2SC1 [Cephalosporanic acid, 7-amino] | 1.06 ± 0.12 | 1.07 ± 0.043
17 | CO[C@]12C[C@@H](COC(=O)c3cncc(Br)c3)CN(C)[C@@H]1Cc1cn(C)c3cccc2c13 [Nicergoline] | 0.886 ± 0.074 | 0.994 ± 0.033
18 | C[N+]12CCC(CC1)C(OC(=O)C(O)(c1ccccc1)c1ccccc1)C2 (centres undefined) [Clidinium bromide] | 1.02 ± 0.025 | 1.06 ± 0.016
19 | C[C@@]12N[C@@H](Cc3ccccc31)c1ccccc12 [(-)-MK 801 hydrogen maleate] | 1.031 ± 0.0088 | 1.01 ± 0.0093
20 | C[C@]12Cc3c[nH]nc3C[C@@H]1CC[C@@H]1[C@@H]2CC[C@@]2(C)[C@H]1CC[C@]2(C)O [Stanozolol] | 1.07 ± 0.064 | 1.06 ± 0.036
21 | CC(C)C[C@H](CN)CC(=O)O [Pregabalin] | 1.07 ± 0.083 | 1.06 ± 0.047
22 | CC(C)(C)NCC(O)c1ccccc1Cl (centres undefined) [Tulobuterol] | 1.07 ± 0.015 | 1.05 ± 0.086
23 | O=P1(NCCCl)OCCCN1CCCl (centres undefined) [Ifosfamide] | 0.947 ± 0.064 | 1.08 ± 0.019

Row | SMILES | normalised cell viability (treatment time: 3 days) | normalised cell viability (treatment time: 6 days)
24 | CC(C)c1c(CN(C)C(C)Cc2ccccc2)n(C)n(-c2ccccc2)c1=O (centres undefined) [Famprofazone] | 0.878 ± 0.018 | 0.899 ± 0.014
25 | C=C(C)[C@@H]1[C@H]2OC(=O)[C@@H]1[C@]1(O)C[C@H]3O[C@]34C(=O)O[C@H]2[C@]14C [Picrotoxinin] | 1.007 ± 0.0066 | 1.11 ± 0.061
26 | NC(=O)CN1CCCC1=O [Piracetam] | 1.04 ± 0.12 | 1.04 ± 0.06
27 | COc1cc2c(cc1OC)C(C)NCC2 (centres undefined) | 1.04 ± 0.036 | 1.02 ± 0.017
28 | CC(=O)OCC(=O)[C@H]1CC[C@H]2[C@@H]3CC[C@H]4C[C@H](O)CC[C@]4(C)[C@H]3C(=O)C[C@]12C [Alfadolone acetate] | 1.02 ± 0.04 | 1.07 ± 0.062
29 | CN1CCN(C(=O)OC2c3nccnc3C(=O)N2c2ccc(Cl)cn2)CC1 (centres undefined) [Zopiclone] | 1.11 ± 0.05 | 1.04 ± 0.061
30 | Clc1ccc(C(OCCN2CCCCC2)c2ccccc2)cc1 (centres undefined) [Cloperastine hydrochloride] | 0.783 ± 0.12 | 0.781 ± 0.093
31 | C[C@]12CC[C@H](O)C[C@H]1CC[C@@H]1[C@@H]2C[C@@H](O)[C@]2(C)[C@@H](C3=CC(=O)OC3)CC[C@]12O [Digoxigenin] | 0.944 ± 0.025 | 1.03 ± 0.058
32 | CC(=O)NC1CCSC1=O (racemic) [N-Acetyl-DL-homocysteine Thiolactone] | 1.02 ± 0.03 | 1.13 ± 0.069
33 | CC(Cc1ccccc1)NCCC(c1ccccc1)c1ccccc1 (centres undefined) [Prenylamine lactate] | 0.811 ± 0.051 | 0.831 ± 0.065
34 | NC(=O)C[S+]([O-])C(c1ccccc1)c1ccccc1 (centres undefined) [Modafinil] | 1.08 ± 0.021 | 1.01 ± 0.047
35 | Cc1cccc(C)c1NC1=NCCCS1 [Xylazine] | 1.1 ± 0.11 | 1.03 ± 0.051
36 | CCC1(c2ccc(N)cc2)CCC(=O)NC1=O (centres undefined) [Glutethimide, para-amino] | 0.905 ± 0.023 | 0.971 ± 0.098
37 | CCN(C)C(=O)Oc1cccc([C@H](C)N(C)C)c1 [Rivastigmine] | 1.03 ± 0.056 | 0.987 ± 0.07
38 | CC[C@@]1([C@@H]2O[C@@H]([C@H]3O[C@@](O)(CO)[C@H](C)C[C@@H]3C)C[C@@H]2C)CC[C@H]([C@]2(C)CC[C@]3(C[C@H](O)[C@@H](C)[C@@H]([C@@H](C)[C@@H](OC)[C@H](C)C(=O)O)O3)O2)O1 [Monensin sodium salt] | 0.156 ± 0.0082 | 0.128 ± 0.0063
39 | CN(C)C(=O)Oc1cc(OC(=O)N(C)C)cc(C(O)CNC(C)(C)C)c1 (centres undefined) [Bambuterol hydrochloride] | 0.913 ± 0.044 | 0.998 ± 0.063
40 | CCn1cc(C(=O)O)c(=O)c2cc3c(cc21)OCO3 [Oxolinic acid] | 1.05 ± 0.044 | 0.993 ± 0.051
41 | C[C@]12CC[C@H](O)C[C@@H]1CC[C@@H]1[C@@H]2CC[C@]2(C)C(=O)CC[C@@H]12 [Epiandrosterone] | 1.01 ± 0.021 | 0.99 ± 0.066
42 | NCC(O)c1ccc(O)cc1 (racemic) [(+,-)-Octopamine hydrochloride] | 1.02 ± 0.083 | 1.1 ± 0.083
43 | CN1[C@@H]2CC[C@H]1C[C@@H](OC1c3ccccc3CCc3ccccc31)C2 [Deptropine citrate] | 0.924 ± 0.022 | 0.775 ± 0.042
44 | C[C@]12CC[C@@H]3c4ccc(OC(=O)N(CCCl)CCCl)cc4CC[C@H]3[C@@H]1CC[C@@H]2O [Estramustine] | 0.175 ± 0.019 | 0.213 ± 0.013
45 | O=[N+]([O-])c1cc([As](=O)(O)O)ccc1O [Roxarsone] | 1.049 ± 0.0048 | 1.09 ± 0.012
46 | COc1ccc(CCN2CCC(Nc3nc4ccccc4n3Cc3ccc(F)cc3)CC2)cc1 [Astemizole] | 0.13 ± 0.0054 | 0.099 ± 0.003

Row | SMILES | normalised cell viability (treatment time: 3 days) | normalised cell viability (treatment time: 6 days)
47 | CC(=O)O[C@H]1C[C@H](O[C@H]2[C@@H](O)C[C@H](O[C@H]3[C@@H](O)C[C@H](O[C@H]4CC[C@@]5(C)[C@H](CC[C@@H]6[C@@H]5C[C@@H](O)[C@]5(C)[C@@H](C7=CC(=O)OC7)CC[C@]65O)C4)O[C@@H]3C)O[C@@H]2C)O[C@H](C)[C@H]1O[C@@H]1O[C@H](CO)[C@@H](O)[C@H](O)[C@H]1O [Lanatoside C] | 0.974 ± 0.08 | 1.06 ± 0.011
48 | Oc1cc(Cl)ccc1Oc1ccc(Cl)cc1Cl [Triclosan] | 0.974 ± 0.022 | 1 ± 0.02
49 | C[N+]1([O-])[C@@H]2C[C@@H](OC(=O)[C@H](CO)c3ccccc3)C[C@H]1[C@@H]1O[C@@H]12 (some centres undefined) [Scopolamin-N-oxide hydrobromide] | 0.997 ± 0.074 | 0.945 ± 0.092
50 | C[C@]12N[C@H](Cc3ccccc31)c1ccccc12 [Dizocilpine maleate] | 1.02 ± 0.042 | 1 ± 0.059
51 | CCN(CC)C(C)C(=O)c1ccccc1 (centres undefined) [Amfepramone hydrochloride] | 1.07 ± 0.1 | 1.14 ± 0.085
52 | O[C@@H]1CCCC[C@H]1N1CCC(c2ccccc2)CC1 [L(-)-vesamicol hydrochloride] | 1.07 ± 0.013 | 1.03 ± 0.048
53 | COc1ccc(Cc2nccc3cc(OC)c(OC)cc23)cc1OC [Papaverine hydrochloride] | 0.655 ± 0.1 | 0.636 ± 0.0089
54 | CCC1(CC)C(=O)C=CNC1=O [Pyrithyldione] | 1.02 ± 0.057 | 1.03 ± 0.032
55 | Fc1ccc(C(OCCN2CCN(CCCc3ccccc3)CC2)c2ccc(F)cc2)cc1 | 0.159 ± 0.0052 | 0.182 ± 0.012
56 | CC(C)(C)NCC(O)c1cc(Cl)c(N)c(Cl)c1 (centres undefined) [Clenbuterol hydrochloride] | 1.18 ± 0.031 | 1.03 ± 0.076
57 | CC[C@@]1(O)C(=O)OCc2c1cc1n(c2=O)Cc2cc3ccccc3nc2-1 [Camptothecine (S,+)] | 0.148 ± 0.0039 | 0.109 ± 0.008
58 | CCC(=O)O[C@@](Cc1ccccc1)(c1ccccc1)[C@@H](C)CN(C)C [Levopropoxyphene napsylate] | 0.958 ± 0.074 | 1.06 ± 0.084
59 | C[N+](C)(C)CCCCCCCCCC[N+](C)(C)C [Decamethonium bromide] | 1.18 ± 0.34 | 1.019 ± 0.0077
60 | c1ccc2nc(N3CCNCC3)ccc2c1 [Quipazine dimaleate salt] | 1.1 ± 0.03 | 0.944 ± 0.11
61 | CN1C[C@H](C(=O)N[C@]2(C)O[C@@]3(O)[C@@H]4CCCN4C(=O)[C@H](Cc4ccccc4)N3C2=O)C[C@@H]2c3cccc4[nH]cc(c34)C[C@H]21 [Dihydroergotamine tartrate] | 1.06 ± 0.024 | 1.02 ± 0.12
62 | C[N+]1(C)[C@@H]2CC[C@H]1C[C@@H](OC(=O)C(CO)c1ccccc1)C2 (some centres undefined) [Methylatropine nitrate] | 1.11 ± 0.021 | 1.15 ± 0.091
63 | COc1cccc(C2(O)CCCCC2CN(C)C)c1 (centres undefined) [Tramadol hydrochloride] | 1.05 ± 0.028 | 1.05 ± 0.076
64 | CC(CCc1ccccc1)NC(C)C(O)c1ccc(O)cc1 (centres undefined) [Nylidrin] | 1.01 ± 0.026 | 0.976 ± 0.061
65 | CC(=O)OC1CN2CCC1CC2 (centres undefined) [Aceclidine Hydrochloride] | 0.906 ± 0.019 | 0.989 ± 0.015
66 | CCCN1C[C@H](CSC)C[C@@H]2c3cccc4[nH]cc(c34)C[C@H]21 [Pergolide mesylate] | 1.08 ± 0.048 | 1.01 ± 0.013
67 | CCC(C)C1O[C@]2(C=C[C@@H]1C)C[C@@H]1CC(C/C=C(\C)[C@@H](OC3C[C@H](OC)[C@@H](OC4C[C@H](OC)[C@@H](O)[C@H](C)O4)[C@H](C)O3)[C@@H](C)/C=C/C=C3\COC4[C@H](O)C(C)=CC(C(=O)O1)[C@]34O)O2 (some centres undefined) [Avermectin B1a] | 0.486 ± 0.016 | 0.475 ± 0.052
